# This is one part of the list.
# Columns and labels:
# Test in all cases: glycan array binding signal (z-score within array); higher = stronger binding
# Conditions in all cases: glycan notation: IUPAC condensed, linker removed
# Gal(b1-4)Glc = target: Gal(b1-4)Glc
# Method in brief: (§1)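 Arrays were curated from the Consortium for Functional Glycomics database, 3228 in total, and kept only where the protein sequence was available. Binding is expressed as a within-array Z-score. This score was averaged across arrays of the same protein sequence at different concentrations or buffers and across linkers, and negative values can be read as non-binding.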
# Gal(b1-4)Glc6S = target: Gal(b1-4)Glc6S
# Method in brief: as §1
# Gal(b1-4)GlcNAc = target: Gal(b1-4)GlcNAc
# Method in brief: as §1
# [1] = target: Gal(b1-4)GlcNAc(a1-6)Gal(b1-4)GlcNAc
# Method in brief: as §1
# Gal(b1-4)GlcNAc(b1-2)Man = target: Gal(b1-4)GlcNAc(b1-2)Man
# Method in brief: as §1
# [2] = target: Gal(b1-4)GlcNAc(b1-2)Man(a1-3)Man(b1-4)GlcNAc(b1-4)GlcNAc
# Method in brief: as §1
# [3] = target: Gal(b1-4)GlcNAc(b1-2)Man(a1-3)[Gal(b1-4)GlcNAc(b1-2)Man(a1-6)]Man(b1-4)GlcNAc(b1-4)GlcNAc
# Method in brief: as §1
# [4] = target: Gal(b1-4)GlcNAc(b1-2)Man(a1-3)[Gal(b1-4)GlcNAc(b1-2)Man(a1-6)]Man(b1-4)GlcNAc(b1-4)[Fuc(a1-6)]GlcNAc
# Method in brief: as §1
# [5] = target: Gal(b1-4)GlcNAc(b1-2)Man(a1-3)[Gal(b1-4)GlcNAc(b1-2)Man(a1-6)][Gal(b1-4)GlcNAc(b1-4)]Man(b1-4)GlcNAc(b1-4)[Fuc(a1-6)]GlcNAc
# Method in brief: as §1
# [6] = target: Gal(b1-4)GlcNAc(b1-2)Man(a1-3)[Gal(b1-4)GlcNAc(b1-2)Man(a1-6)][GlcNAc(b1-4)]Man(b1-4)GlcNAc(b1-4)[Fuc(a1-6)]GlcNAc
# Method in brief: as §1
# [7] = target: Gal(b1-4)GlcNAc(b1-2)Man(a1-3)[GlcNAc(b1-2)Man(a1-6)]Man(b1-4)GlcNAc(b1-4)GlcNAc
# Method in brief: as §1
# [8] = target: Gal(b1-4)GlcNAc(b1-2)Man(a1-3)[GlcNAc(b1-4)][Gal(b1-4)GlcNAc(b1-2)Man(a1-6)]Man(b1-4)GlcNAc(b1-4)GlcNAc
# Method in brief: as §1
# [9] = target: Gal(b1-4)GlcNAc(b1-2)Man(a1-3)[Man(a1-6)]Man(b1-4)GlcNAc(b1-4)GlcNAc
# Method in brief: as §1
# [10] = target: Gal(b1-4)GlcNAc(b1-2)Man(a1-6)Man(b1-4)GlcNAc(b1-4)GlcNAc
# Method in brief: as §1
# [11] = target: Gal(b1-4)GlcNAc(b1-2)Man(a1-6)[GlcNAc(b1-2)Man(a1-3)]Man(b1-4)GlcNAc(b1-4)GlcNAc
# Method in brief: as §1
# [12] = target: Gal(b1-4)GlcNAc(b1-2)Man(a1-6)[Man(a1-3)]Man(b1-4)GlcNAc(b1-4)GlcNAc
# Method in brief: as §1
# [13] = target: Gal(b1-4)GlcNAc(b1-2)[Gal(b1-4)GlcNAc(b1-4)]Man(a1-3)[Gal(b1-4)GlcNAc(b1-2)Man(a1-6)]Man(b1-4)GlcNAc(b1-4)GlcNAc
# Method in brief: as §1
# [14] = target: Gal(b1-4)GlcNAc(b1-2)[Gal(b1-4)GlcNAc(b1-4)]Man(a1-3)[Gal(b1-4)GlcNAc(b1-2)[Gal(b1-4)GlcNAc(b1-6)]Man(a1-6)]Man(b1-4)GlcNAc(b1-4)GlcNAc
# Method in brief: as §1
# [15] = target: Gal(b1-4)GlcNAc(b1-2)[Gal(b1-4)GlcNAc(b1-4)]Man(a1-3)[GlcNAc(b1-4)][Gal(b1-4)GlcNAc(b1-2)Man(a1-6)]Man(b1-4)GlcNAc(b1-4)GlcNAc
# Method in brief: as §1
# [16] = target: Gal(b1-4)GlcNAc(b1-2)[Gal(b1-4)GlcNAc(b1-4)]Man(a1-3)[GlcNAc(b1-4)][Gal(b1-4)GlcNAc(b1-2)[Gal(b1-4)GlcNAc(b1-6)]Man(a1-6)]Man(b1-4)GlcNAc(b1-4)GlcNAc
# Method in brief: as §1
# [17] = target: Gal(b1-4)GlcNAc(b1-2)[Gal(b1-4)GlcNAc(b1-6)]Man(a1-6)[Gal(b1-4)GlcNAc(b1-2)Man(a1-3)]Man(b1-4)GlcNAc(b1-4)GlcNAc
# Method in brief: as §1
# [18] = target: Gal(b1-4)GlcNAc(b1-2)[Gal(b1-4)GlcNAc(b1-6)]Man(a1-6)[Gal(b1-4)GlcNAc(b1-2)Man(a1-3)]Man(b1-4)GlcNAc(b1-4)[Fuc(a1-6)]GlcNAc
# Method in brief: as §1
binder,measurement,setting,value
PfulAvr4 2 (Pseudocercospora fuligena) (protein) HHHHHHDYKDDDDKAKPIKPFACPPKDFTTTKCQGPVDCLYANPLSCLGYIQCVCDDDACSTATPYAKSCPTGLAWVEKLKRCDGIKKSACPKKMYEGS,glycan array binding signal (z-score),Gal(b1-4)Glc,0.459
same,glycan array binding signal (z-score),Gal(b1-4)Glc6S,-0.209
same,glycan array binding signal (z-score),Gal(b1-4)GlcNAc,-0.16
same,glycan array binding signal (z-score),[1],-0.269
same,glycan array binding signal (z-score),Gal(b1-4)GlcNAc(b1-2)Man,1.54
same,glycan array binding signal (z-score),[2],0.015
same,glycan array binding signal (z-score),[3],-0.347
same,glycan array binding signal (z-score),[4],0.017
same,glycan array binding signal (z-score),[5],-0.405
same,glycan array binding signal (z-score),[6],-0.397
same,glycan array binding signal (z-score),[7],-0.331
same,glycan array binding signal (z-score),[8],-0.216
same,glycan array binding signal (z-score),[9],9.66
same,glycan array binding signal (z-score),[10],-0.207
same,glycan array binding signal (z-score),[11],-0.282
same,glycan array binding signal (z-score),[12],-0.138
same,glycan array binding signal (z-score),[13],-0.237
same,glycan array binding signal (z-score),[14],-0.113
same,glycan array binding signal (z-score),[15],-0.146
same,glycan array binding signal (z-score),[16],0.387
same,glycan array binding signal (z-score),[17],0.132
same,glycan array binding signal (z-score),[18],-0.305
